# Test results published in the supplement of paper PMC8728848.
# This is one part of the list.
# B1: Epa1-NP-mutant-Y228A (Candida glabrata), Q6VBJ0 (protein)
# chain: MILNPALFLNKCVCIYTTLILLLLTNGGYATSSNDISLASKDPTTFPLGCSPDITTPKKGLSMELYSYDFRKKGSYPCWDAAYLDPNYPRTGYKSHRLLAKVDGVTGNINFYYHATKGCTPQLGHLPASYNYPKPLTMTNFTMLLYGYFRPKVTGFHTFTISADDLLFVNFGAGNAFDCCRRDSSADHFGNYQAYAIWGSKTAKDELTVHLDAGVYYPIRLFYNNREADGALSFTFKTESNENTVSDFSEYFFSLDDTEEGCPGLISYDSSCASVKTSKIIGIDYHTETPNENLVPITKTIYHLGIPCTGTTTTPLCGSGFYDPLANKCVTINTSSTSSVTKTTSHTTSKEVSFHSSISSQKTLIPKSIPSPYGPIKSQSIPTEMETSSEISSSEYAFSDVISTPSHSPYTKKHSSLNSSSYTSTVIHSLTSYSISQGIFSTSLSEQNITSKSSTDKFSTATSMSNNITQSSIIISQFSTNNENYTTTSMHTSSDKISTETLNNSISTTTSILFSNSSTILKNNTTIISSDKDTHYHPVNPTIVCSTNKTEIICASITQPSISNSNNHWSSSVLKFNSTTVRSTLPSSAGSNETSINVPFSSSTESNTSTSSTSTSNSKMVRSTLPSSAGSNETSISVPFSSSTESNTSTSSTSTSNSKMVRSTLPSSAGSNETSINVPFSSSTESNTSTSSTSTSNSKTVRSTPFSSAGIIMTSLSQRNNKSASSYASSNSKCYNTADSCRKVHSTPSYLLTSSYTSEGVDYDCSLVSTKLKINDTNCVNNKHTTKSCLKTSVTTTIPTLEIKTARKSSSNTIGLHSYPTSSPNKSISSAPIIGYISSFKTIKTASPSYQTSDLTTITTITSLNNPGSTAVENTHESNDKSRKTSSNDISSKHSVIKETKDAVESSNKSHQTNTLKCSSIIIASSSHNSYESLGGTTLTLTLSKVYSPQNNDTLPFLEISEVNPSRTVLPESSKMMQYLTSTEERNKTARNTIATNIVSISTFHFEGEGNAIRMGYTQLLLMLIGIIVMNIGT
# Tests used:
# Assay in all cases: glycan array binding signal (z-score within array); higher = stronger binding
# Details in all cases: glycan notation: IUPAC condensed, linker removed; mutation: Y228A
# Neu5Ac(a2-3)GalNAc = molecular target: Neu5Ac(a2-3)GalNAc
# In short: (§1)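 Glycan array data were curated from 3228 arrays in the Consortium for Functional Glycomics database and kept only where the protein sequence was available. Glycan names were converted to IUPAC-condensed notation, and columns mapping to the same glycan were averaged. The binding signal is a within-array Z-score, averaged across arrays of the same protein sequence at different concentrations or buffers and across linkers. Negative Z-scores can be read as non-binding.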
# [1] = molecular target: Neu5Ac(a2-3)GalNAc(b1-4)GlcNAc
# In short: as §1
# [2] = molecular target: Neu5Ac(a2-3)[GalNAc(b1-4)]Gal(b1-4)Glc
# In short: as §1
# [3] = molecular target: Neu5Ac(a2-3)[GalNAc(b1-4)]Gal(b1-4)GlcNAc
# In short: as §1
# [4] = molecular target: Neu5Ac(a2-3)[GalNAc(b1-4)]Gal(b1-4)GlcNAc(b1-3)GalNAc
# In short: as §1
# [5] = molecular target: Neu5Ac(a2-3)[Neu5Ac(a2-6)]GalNAc
# In short: as §1
# Neu5Ac(a2-6)Gal = molecular target: Neu5Ac(a2-6)Gal
# In short: as §1
# [6] = molecular target: Neu5Ac(a2-6)Gal(b1-3)GlcNAc(b1-3)[Gal(b1-4)GlcNAc(b1-6)]Gal(b1-4)Glc
# In short: as §1
# Neu5Ac(a2-6)Gal(b1-4)Glc = molecular target: Neu5Ac(a2-6)Gal(b1-4)Glc
# In short: as §1
# [7] = molecular target: Neu5Ac(a2-6)Gal(b1-4)GlcNAc
# In short: as §1
# [8] = molecular target: Neu5Ac(a2-6)Gal(b1-4)GlcNAc(b1-2)Man
# In short: as §1
# [9] = molecular target: Neu5Ac(a2-6)Gal(b1-4)GlcNAc(b1-2)Man(a1-3)Man(b1-4)GlcNAc(b1-4)GlcNAc
# In short: as §1
# [10] = molecular target: Neu5Ac(a2-6)Gal(b1-4)GlcNAc(b1-2)Man(a1-3)[Gal(b1-4)GlcNAc(b1-2)Man(a1-6)]Man(b1-4)GlcNAc(b1-4)GlcNAc
# In short: as §1
# [11] = molecular target: Neu5Ac(a2-6)Gal(b1-4)GlcNAc(b1-2)Man(a1-3)[GlcNAc(b1-2)Man(a1-6)]Man(b1-4)GlcNAc(b1-4)GlcNAc
# In short: as §1
# [12] = molecular target: Neu5Ac(a2-6)Gal(b1-4)GlcNAc(b1-2)Man(a1-3)[GlcNAc(b1-4)][Neu5Ac(a2-6)Gal(b1-4)GlcNAc(b1-2)Man(a1-6)]Man(b1-4)GlcNAc(b1-4)GlcNAc
# In short: as §1
# [13] = molecular target: Neu5Ac(a2-6)Gal(b1-4)GlcNAc(b1-2)Man(a1-3)[Man(a1-6)]Man(b1-4)GlcNAc(b1-4)GlcNAc
# In short: as §1
# [14] = molecular target: Neu5Ac(a2-6)Gal(b1-4)GlcNAc(b1-2)Man(a1-3)[Neu5Ac(a2-3)Gal(b1-4)GlcNAc(b1-2)Man(a1-6)]Man(b1-4)GlcNAc(b1-4)GlcNAc
# In short: as §1
# [15] = molecular target: Neu5Ac(a2-6)Gal(b1-4)GlcNAc(b1-2)Man(a1-3)[Neu5Ac(a2-6)Gal(b1-4)GlcNAc(b1-2)Man(a1-6)]Man(b1-4)GlcNAc(b1-4)GlcNAc
# In short: as §1
# [16] = molecular target: Neu5Ac(a2-6)Gal(b1-4)GlcNAc(b1-2)Man(a1-3)[Neu5Ac(a2-6)Gal(b1-4)GlcNAc(b1-2)Man(a1-6)]Man(b1-4)GlcNAc(b1-4)[Fuc(a1-6)]GlcNAc
# In short: as §1
# [17] = molecular target: Neu5Ac(a2-6)Gal(b1-4)GlcNAc(b1-2)Man(a1-6)Man(b1-4)GlcNAc(b1-4)GlcNAc
# In short: as §1
# [18] = molecular target: Neu5Ac(a2-6)Gal(b1-4)GlcNAc(b1-2)Man(a1-6)[Gal(b1-4)GlcNAc(b1-2)Man(a1-3)]Man(b1-4)GlcNAc(b1-4)GlcNAc
# In short: as §1
# [19] = molecular target: Neu5Ac(a2-6)Gal(b1-4)GlcNAc(b1-2)Man(a1-6)[GlcNAc(b1-2)Man(a1-3)]Man(b1-4)GlcNAc(b1-4)GlcNAc
# In short: as §1
# [20] = molecular target: Neu5Ac(a2-6)Gal(b1-4)GlcNAc(b1-2)Man(a1-6)[Man(a1-3)]Man(b1-4)GlcNAc(b1-4)GlcNAc
# In short: as §1
# [21] = molecular target: Neu5Ac(a2-6)Gal(b1-4)GlcNAc(b1-2)[Neu5Ac(a2-6)Gal(b1-4)GlcNAc(b1-4)]Man(a1-3)[GlcNAc(b1-4)][Neu5Ac(a2-6)Gal(b1-4)GlcNAc(b1-2)[Neu5Ac(a2-6)Gal(b1-4)GlcNAc(b1-6)]Man(a1-6)]Man(b1-4)GlcNAc(b1-4)GlcNAc
# In short: as §1
# [22] = molecular target: Neu5Ac(a2-6)Gal(b1-4)GlcNAc(b1-2)[Neu5Ac(a2-6)Gal(b1-4)GlcNAc(b1-4)]Man(a1-3)[GlcNAc(b1-4)][Neu5Ac(a2-6)Gal(b1-4)GlcNAc(b1-4)Man(a1-6)]Man(b1-4)GlcNAc(b1-4)GlcNAc
# In short: as §1
# [23] = molecular target: Neu5Ac(a2-6)Gal(b1-4)GlcNAc(b1-2)[Neu5Ac(a2-6)Gal(b1-4)GlcNAc(b1-6)]Man(a1-6)[Neu5Ac(a2-6)Gal(b1-4)GlcNAc(b1-2)Man(a1-3)][GlcNAc(b1-4)]Man(b1-4)GlcNAc(b1-4)GlcNAc
# In short: as §1
# [24] = molecular target: Neu5Ac(a2-6)Gal(b1-4)GlcNAc(b1-3)Gal(b1-3)GlcNAc
# In short: as §1
# [25] = molecular target: Neu5Ac(a2-6)Gal(b1-4)GlcNAc(b1-3)Gal(b1-4)GlcNAc
# In short: as §1
# [26] = molecular target: Neu5Ac(a2-6)Gal(b1-4)GlcNAc(b1-3)Gal(b1-4)GlcNAc(b1-2)Man(a1-3)[Neu5Ac(a2-6)Gal(b1-4)GlcNAc(b1-3)Gal(b1-4)GlcNAc(b1-2)Man(a1-6)]GalNAc
# In short: as §1
# [27] = molecular target: Neu5Ac(a2-6)Gal(b1-4)GlcNAc(b1-3)Gal(b1-4)GlcNAc(b1-3)Gal(b1-4)GlcNAc
# In short: as §1
# [28] = molecular target: Neu5Ac(a2-6)Gal(b1-4)GlcNAc(b1-3)Gal(b1-4)GlcNAc(b1-3)Gal(b1-4)GlcNAc(b1-2)Man(a1-3)[Neu5Ac(a2-6)Gal(b1-4)GlcNAc(b1-3)Gal(b1-4)GlcNAc(b1-3)Gal(b1-4)GlcNAc(b1-2)Man(a1-6)]GalNAc
# In short: as §1
# [29] = molecular target: Neu5Ac(a2-6)Gal(b1-4)GlcNAc(b1-3)Gal(b1-4)GlcNAc(b1-3)GalNAc
# In short: as §1
# [30] = molecular target: Neu5Ac(a2-6)Gal(b1-4)GlcNAc(b1-3)Gal(b1-4)GlcNAc(b1-3)[Neu5Ac(a2-6)Gal(b1-4)GlcNAc(b1-3)Gal(b1-4)GlcNAc(b1-6)]GalNAc
# In short: as §1
# [31] = molecular target: Neu5Ac(a2-6)Gal(b1-4)GlcNAc(b1-3)Gal(b1-4)GlcNAc(b1-6)[Gal(b1-3)]GalNAc
# In short: as §1
# [32] = molecular target: Neu5Ac(a2-6)Gal(b1-4)GlcNAc(b1-3)Gal(b1-4)[Fuc(a1-3)]GlcNAc(b1-3)Gal(b1-4)[Fuc(a1-3)]GlcNAc
# In short: as §1
# [33] = molecular target: Neu5Ac(a2-6)Gal(b1-4)GlcNAc(b1-3)GalNAc
# In short: as §1
# [34] = molecular target: Neu5Ac(a2-6)Gal(b1-4)GlcNAc(b1-3)[Neu5Ac(a2-6)Gal(b1-4)GlcNAc(b1-6)]GalNAc
# In short: as §1
# [35] = molecular target: Neu5Ac(a2-6)Gal(b1-4)GlcNAc(b1-6)GalNAc
# In short: as §1
binder,measurement,setting,value
B1,glycan array binding signal (z-score),Neu5Ac(a2-3)GalNAc,-0.049
same,glycan array binding signal (z-score),[1],-0.271
same,glycan array binding signal (z-score),[2],-0.194
same,glycan array binding signal (z-score),[3],-0.122
same,glycan array binding signal (z-score),[4],-0.181
same,glycan array binding signal (z-score),[5],-0.296
same,glycan array binding signal (z-score),Neu5Ac(a2-6)Gal,-0.224
same,glycan array binding signal (z-score),[6],-0.085
same,glycan array binding signal (z-score),Neu5Ac(a2-6)Gal(b1-4)Glc,-0.187
same,glycan array binding signal (z-score),[7],-0.241
same,glycan array binding signal (z-score),[8],-0.108
same,glycan array binding signal (z-score),[9],-0.236
same,glycan array binding signal (z-score),[10],-0.248
same,glycan array binding signal (z-score),[11],-0.313
same,glycan array binding signal (z-score),[12],-0.266
same,glycan array binding signal (z-score),[13],-0.111
same,glycan array binding signal (z-score),[14],-0.18
same,glycan array binding signal (z-score),[15],-0.261
same,glycan array binding signal (z-score),[16],-0.218
same,glycan array binding signal (z-score),[17],-0.208
same,glycan array binding signal (z-score),[18],-0.278
same,glycan array binding signal (z-score),[19],-0.16
same,glycan array binding signal (z-score),[20],-0.207
same,glycan array binding signal (z-score),[21],-0.157
same,glycan array binding signal (z-score),[22],-0.158
same,glycan array binding signal (z-score),[23],-0.155
same,glycan array binding signal (z-score),[24],-0.264
same,glycan array binding signal (z-score),[25],-0.313
same,glycan array binding signal (z-score),[26],-0.203
same,glycan array binding signal (z-score),[27],-0.307
same,glycan array binding signal (z-score),[28],-0.01
same,glycan array binding signal (z-score),[29],-0.246
same,glycan array binding signal (z-score),[30],-0.005
same,glycan array binding signal (z-score),[31],-0.278
same,glycan array binding signal (z-score),[32],-0.199
same,glycan array binding signal (z-score),[33],-0.142
same,glycan array binding signal (z-score),[34],-0.312
same,glycan array binding signal (z-score),[35],-0.274
